Assay results reported in a compilation of properties of binary mixtures (doi:10.1021/ie501956x).
Some of these densities may be calculated back from excess volumes.

Assay: xn = mol fraction of the nth substance listed
Conditions: 101 kPa

CCO + CC(=O)[O-].CC[n+]1ccn(C)c1
x1 = 1
Conditions | mass density [kg/m3]
278.15 K | 802.1
288.15 K | 793.7
298.15 K | 785.1
308.15 K | 776.4
328.15 K | 758.6

CC(=O)[O-].CC[n+]1ccn(C)c1 + CCO
mass density [kg/m3]
Conditions | x2 = 0 | x2 = 0.1 | x2 = 0.201 | x2 = 0.2999 | x2 = 0.4002 | x2 = 0.5001 | x2 = 0.6 | x2 = 0.7 | x2 = 0.8 | x2 = 0.9
278.15 K | 1111.6 | 1100.7 | – | 1072.9 | 1055.6 | 1034.6 | 1008.9 | 977.4 | 935.9 | –
288.15 K | – | – | 1081.4 | 1066.6 | 1049.1 | 1028 | 1002.1 | 970.4 | – | 873.4
298.15 K | 1099 | 1088.1 | 1075.2 | 1060.3 | – | – | 995.4 | 963.5 | 921.5 | 865.7
308.15 K | 1092.9 | 1082 | 1069 | – | 1036.2 | 1014.9 | – | 956.6 | – | 858.1
318.15 K | 1086.9 | – | – | – | – | 1008.4 | – | 949.7 | 907.1 | –
328.15 K | 1080.8 | 1069.8 | 1056.7 | 1041.7 | 1023.6 | 1002 | 975.5 | – | 900 | 842.7
338.15 K | – | 1063.8 | 1050.6 | 1035.5 | 1017.3 | 995.6 | 968.9 | 936.1 | – | 834.9
